Laboratory results taken from PubChem BioAssay AID485344 (National Center for Advancing Translational Sciences (NCATS), 2010).
In all, about 340,000 compounds went through this assay and about 6,900 (2%) were called active. Rule as the data show it: active = inhibition above about 30%; inactive = below that, where a call was filed. Only a part is listed here, and it is no random draw. Entries without a call were filed so in the source.

Target: D(2) dopamine receptor (Homo sapiens) (UniProt P14416)
Chain of UniProt P14416 (P14416 whole entry, looked up): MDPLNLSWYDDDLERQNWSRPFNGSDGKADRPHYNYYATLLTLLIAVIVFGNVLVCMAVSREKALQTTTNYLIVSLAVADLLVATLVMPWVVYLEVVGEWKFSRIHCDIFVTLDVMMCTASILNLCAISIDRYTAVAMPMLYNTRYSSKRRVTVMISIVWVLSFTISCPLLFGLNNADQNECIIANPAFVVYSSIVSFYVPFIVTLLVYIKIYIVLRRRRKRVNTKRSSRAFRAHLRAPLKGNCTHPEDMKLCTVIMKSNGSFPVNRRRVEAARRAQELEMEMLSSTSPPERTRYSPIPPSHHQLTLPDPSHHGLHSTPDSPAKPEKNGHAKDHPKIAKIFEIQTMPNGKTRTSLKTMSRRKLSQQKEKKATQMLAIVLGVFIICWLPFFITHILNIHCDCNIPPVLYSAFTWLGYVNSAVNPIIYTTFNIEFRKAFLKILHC
Assay: HTS Assay for Allosteric Antagonists of the Human D2 Dopamine Receptor: Primary Screen for Antagonists; also: 0% is about no effect
Conditions: HEK293 TREx D2 cells, calcium flux, dopamine EC80; at 10 µM; stronger effect = higher value
Outline: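 Tetracycline-induced HEK293 T-REx cells expressing D2 force-coupled to calcium signalling were dye-loaded, exposed to compound for 180 s, then challenged with an EC80 of dopamine; calcium flux was followed kinetically for a further 180 s.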

Row | Compound | inhibition
1 | Cc1ccc(CCNS(=O)(=O)c2ccc3c(c2)C(C(C)C)C(=O)N3)cc1 (configuration not stated) | -17.1%
2 | Cc1cccc(-c2noc(-c3cc(C(C)C)[nH]n3)n2)c1 | -1.93%
3 | CC(=O)N1c2ccccc2C(=O)C1N1CCN(c2cccc(Cl)c2)CC1 (configuration not stated) | 6.64%
4 | CN(C)CCNC(=O)CN1C(=O)COc2ccc(C(C)(C)C)cc21 | active: 35.5%
5 | COCCNC(=O)Cn1nc(-c2ccccc2)c2ccccc2c1=O | 3.27%
6 | COc1cc(OC)c(C2CC(=O)Nc3ccc4ccccc4c32)cc1OC (configuration not stated) | 9.55%
7 | COC(=O)c1ccccc1NC(=O)c1nc(-c2ccc(C)cc2)n2c1CCCCC2 | 21.1%
8 | CC(NC(=O)Cn1c(=O)oc2cc(S(=O)(=O)N3CCCCCC3)ccc21)c1ccccc1 (configuration not stated) | -0.717%
9 | CC(NC(=O)c1cc2c(=O)n3ccccc3nc2n(C(C)C)c1=N)c1ccccc1 (configuration not stated) | 4.83%
10 | CC(C)Cn1cc(NC(=O)NCc2cccc(Cl)c2)c2ccccc2c1=O | -1.5%
11 | COc1ccc(NC(=O)c2cccc(N3CCCS3(=O)=O)c2)c(OC)c1 | 5.68%
12 | O=C(NCCC1=CCCCC1)c1ccc2c(c1)sc1nc(-c3ccc(F)cc3)cn12 | 23.4%
13 | O=C(NCCc1ccccc1)c1ccc2c(c1)N(Cc1ccc(F)cc1)C(=O)CS2 | -5.32%
14 | COc1ccc(OCC(O)CNC(=O)Nc2cc(F)ccc2C)cc1 (configuration not stated) | active: 38.2%
15 | CCN(CC)c1ccc(NC(=O)CN2CCN(CC(=O)Nc3ccc(Cl)cc3)CC2)cc1 | -5.69%
16 | N#Cc1ccsc1NC(=O)CN1C(=O)NC2(CCCC2)C1=O | active: 40.5%
17 | Cc1ccc(Cn2c(CCNC(=O)c3cccc(C)c3)nc3ccccc32)cc1 | 10.2%
18 | COc1ccc(Cl)cc1NC(=O)CSC1=Nc2ccccc2C2=NC(CCC(=O)NCc3ccco3)C(=O)N12 (configuration not stated) | 2.69%
19 | CCOC(=O)c1c(NC(=O)c2cc(=O)c3cc(C)ccc3o2)sc2c1CCCC2 | 1.51%
20 | Cc1cccc(NC(=O)CN2C(=O)C3(SCC(=O)N3c3ccccc3)c3ccccc32)c1 (configuration not stated) | -8.09%
21 | Cc1ccc(S(=O)(=O)N(C)C)cc1NC(=S)NCc1ccco1 | active: 39.7%
22 | Cc1ccc(S(=O)(=O)N2CCN(Cc3ccccc3Cl)CC2)cc1 | -7.55%
23 | CN1CCN(c2ncnc3c2cnn3-c2cccc(Cl)c2)CC1 | 13.5%
24 | COc1cc(OC)c(OC)cc1/C=C/c1nc2cc3ccccc3cc2c(=O)n1-c1ccccc1Br | 13.4%
25 | COc1cc2c(c(OC)c1)C(c1cccc(F)c1F)CC(=O)N2 (configuration not stated) | -1.97%

Row | Compound | inhibition
26 | COc1cccc(CNC(=O)c2ccc(-c3nc(CSc4ccccc4)c(C)o3)cc2)c1 | -0.603%
27 | CCn1cc2nc(SCc3ccccc3Cl)n(Cc3ccc(OC)cc3)c(=O)c2n1 | -8.75%
28 | COc1ccc(-c2c(C)c3ccc(O)c(CN4CCC(C)CC4)c3oc2=O)cc1OC | 10.9%
29 | CC(=O)Nc1ccccc1-c1nc2ccccc2n(C(C)C(=O)Nc2ccccc2C(F)(F)F)c1=O (configuration not stated) | 9.28%
30 | CCCN(CCC)CCCNC(=O)c1cc2c(=O)n(C)c3ccccc3c2s1 | -5.4%
31 | NC(=O)C1CCN(C(=O)COc2ccc3c4c(c(=O)oc3c2)CCCC4)CC1 | active: 30.8%
32 | COc1ccc(C(Nc2ccccn2)c2ccc3ccc(C)nc3c2O)cc1C (configuration not stated) | -18.3%
33 | COc1ccc(NC(=O)C(=O)NCCc2csc3nc(-c4ccccc4F)nn23)cc1OC | -1%
34 | CC(=O)c1ccc(NS(=O)(=O)c2ccc3c(c2)NC(=O)CCS3)cc1 | 8.09%
35 | O=C(O)c1ccccc1C(=O)Nc1ccc(Br)c2cccnc12 | -18.3%
36 | COc1ccc(C)cc1NC(=O)c1ccc(CN2CCN(c3ccccc3)CC2)cc1 | active: 88.8%
37 | CCN1CCN(c2oc(-c3ccc(COc4ccccc4C)o3)nc2C#N)CC1 | -22.4%
38 | Cc1noc(C)c1S(=O)(=O)N(CC(=O)Nc1ccc(F)cc1F)c1ccc(C(C)C)cc1 | -4.59%
39 | CCCNC(=O)c1ccc2c(c1)nc1n2CCCCC1 | 0.957%
40 | COc1cccc(CNC(=O)Cn2ncn3nc(-c4cccs4)cc3c2=O)c1 | 15.9%
41 | COc1ccc(Cn2ccc3nc(C)c(C(=O)Nc4cccc(SC)c4)cc3c2=O)cc1 | 4.8%
42 | Oc1c(C(Nc2ccccn2)c2ccccc2F)ccc2cccnc12 (configuration not stated) | -10.4%
43 | O=C(CSc1nc(=O)n(Cc2ccccn2)c2c1CCC2)Nc1ccccc1 | -2.65%
44 | CSc1ccccc1NC(=O)CCS(=O)(=O)c1nc(-c2ccc3c(c2)OCO3)cc(C(F)(F)F)n1 | 15.3%
45 | CC(C)(C)OC(=O)N1CCC(c2c(C(=O)NC3CCCCC3)cnn2-c2ccc(F)cc2F)CC1 | -4.03%
46 | Cc1ccc(S(=O)(=O)C(CNS(=O)(=O)c2cc(F)ccc2F)c2cccs2)cc1 (configuration not stated) | 10.3%
47 | COc1cc(CNC(=O)c2cnc(SC)nc2-c2ccccc2)cc(OC)c1OC | -21.5%
48 | Cc1cccc(S(=O)(=O)c2cn(Cc3ccccc3)c3cc(N4CCCCC4)c(F)cc3c2=O)c1 | 1.23%
49 | COC(=O)c1ccccc1NS(=O)(=O)c1cc2c(cc1C)N(C)CCO2 | 9.42%
50 | COc1ccccc1N1CCN(C(=O)CN2C(=O)COc3ccc(S(=O)(=O)N4CCOCC4)cc32)CC1 | 4.69%

Row | Compound | inhibition
51 | CCN(CC)C(=O)c1c(-c2ccccc2)c(-c2ccccc2)nn(CC)c1=O | 10.1%
52 | COc1ccc(CCC(=O)NC2CC(=O)N(c3ccc(F)cc3)C2)cc1 (configuration not stated) | 27.8%
53 | COc1ccc(-c2nc3sc(CCNC(=O)c4ccc(Br)o4)c(C)n3n2)cc1 | -0.724%
54 | CCN(Cc1nc(-c2ccc(OC)c(OC)c2)no1)S(=O)(=O)c1ccc(OC)cc1 | -13.2%
55 | CCn1cc(/C=C(\NC(=O)c2cc(OC)c(OC)c(OC)c2)C(=O)NCCCn2ccnc2)c2ccccc21 | -3.61%
56 | Cc1cc(NC(=O)Cc2ccccc2)cc(-c2nc3ccccc3o2)c1O | -5.14%
57 | Cc1c(C(=O)NCCN(C)C)oc2c1-c1nn(Cc3cccc(Cl)c3)cc1CC2 | -2.77%
58 | Cc1nc(-c2ccc(F)cc2)sc1CCNC(=O)Cc1ccc(F)cc1 | -5.97%
59 | CCOC(=O)c1cc2c(=O)n3ccccc3nc2n(C(C)C)c1=NC(=O)C(C)(C)Oc1ccc(Cl)cc1 | 6.14%
60 | CN(C)c1ccc(Nc2ncnc3c2c(-c2ccccc2)cn3-c2cccc(Cl)c2)cc1 | 1.44%
61 | O=C1CN(C(=O)c2ccc(S(=O)(=O)N3CCCC3)cc2)C(c2ccccc2)c2cc(F)ccc2N1 (configuration not stated) | -5.17%
62 | Cc1ccccc1-c1noc(-c2ccccc2OCC(=O)Nc2cccc([N+](=O)[O-])c2)n1 | 23.3%
63 | CCN(c1ccccc1)S(=O)(=O)c1cnc[nH]1 | active: 34.5%
64 | N#Cc1c(-c2ccccc2)cc(-c2ccccc2)nc1SCC(O)CS(=O)(=O)Cc1ccc(Cl)cc1 (configuration not stated) | 0.445%
65 | CCCNC(=O)c1ccc2c(c1)N=C(C)c1c(C)ccc(C)c1S2 | -10.3%
66 | CCNc1ccc(S(=O)(=O)N2CCCCC2)cn1 | active: 33.1%
67 | O=C(NCc1ccc(Cl)cc1)C(=O)NCC(c1cccs1)S(=O)(=O)c1ccc(Cl)cc1 (configuration not stated) | -17.5%
68 | CCOc1ccc(CCNC(=O)C2CCN(c3ncnc4c3nc3n4CCCCC3)CC2)cc1 | 7.42%
69 | O=C(Nc1ccccc1F)c1nc(S(=O)(=O)Cc2ccccc2F)ncc1Cl | -25.9%
70 | CCN(C(=O)c1noc2c1COc1ccc(C)cc1-2)c1cccc(C)c1 | 9.77%
71 | Clc1cccc(-n2ncc3c(NC4CCCCC4)ncnc32)c1 | 15.3%
72 | CCOc1ccc(-c2nnc(SCC(=O)NC3CCCC3)nc2-c2ccc(OCC)c(OC)c2)cc1OC | -23.2%
73 | Cc1c(C(=O)Nc2ccc3c(c2)OCCO3)sc2nc(-c3ccccc3)cn12 | active: 72.8%
74 | CC(C)(C)OC(=O)N1CCC(c2c(C(=O)NCCN3CCC(Cc4ccccc4)CC3)cnn2-c2cccc(Cl)c2)CC1 | -6.28%
75 | Cc1cccc(N2CCN(C(=O)c3cc(S(=O)(=O)N4CCC(C)CC4)cn3C)CC2)c1C | 0.617%

Row | Compound | inhibition
76 | COc1ccccc1CNC(=O)c1ccccc1NC(=O)c1nsc2ccccc12 | -21.5%
77 | Cc1ccc(-n2nc3ccc(NC(=O)c4oc5ccccc5c4C)cc3n2)cc1 | 2.27%
78 | CCOC(=O)c1[nH]c2ccccc2c1NC(=O)c1ccccc1OCC | -8.98%
79 | Cc1ccccc1NC(=O)CCC(=O)N1CCSc2ccccc21 | -10.6%
80 | CC(=O)N1c2ccc(S(=O)(=O)NCC3CCC(C(=O)NC(C)(C)C)CC3)cc2CC1C (configuration not stated) | 4.42%
81 | Cc1ccc(S(=O)(=O)N(CC(=O)Nc2ccc(C(C)C)cc2)Cc2ccccc2)cc1 | 1.95%
82 | O=C(NCC(c1cccs1)S(=O)(=O)c1cccs1)c1ccccc1F (configuration not stated) | -17.4%
83 | Cc1cccc(C(=O)Nc2cccc(C(=O)N/N=C/c3ccc4c(c3)OCO4)c2)c1 | active: 37.3%
84 | Clc1ccccc1N1CCN(c2ncnc3c2c(-c2ccccc2)cn3-c2ccccc2)CC1 | -13.9%
85 | O=C(Cn1ncc2c3ccccc3n(Cc3ccc(Cl)cc3)c2c1=O)N1CCCCCC1 | -0.653%
86 | COc1cccc(-c2cn3c(n2)sc2cc(C(=O)NC4CCCCCC4)ccc23)c1 | 14.8%
87 | CCCOC(=O)Nc1nnc(CCC)s1 | active: 44%
88 | COc1ccc(Br)cc1CNC(=O)Cn1c(=O)c2cccn2c2ccc(F)cc21 | 0.51%
89 | Cc1cc(C)c2oc(-c3cccc(NC(=O)c4ccc(Br)o4)c3)nc2c1 | 8.89%
90 | Cc1ccccc1Cn1cc(CCC(=O)NC(C)c2ccccc2)c2ccccc21 (configuration not stated) | 11.3%
91 | CCOc1ccc(NC(=O)c2oc3ccccc3c2NC(=O)Cc2ccc(F)cc2)cc1 | 1.9%
92 | CCC(C)c1ccc(OCC(=O)Nc2cccc(-c3nc4ncccc4o3)c2)cc1 (configuration not stated) | -8.28%
93 | COC(=O)c1cc(NC(=O)c2oc(=O)c3ccccc3c2-c2ccccc2)cc(C(=O)OC)c1 | 4.29%
94 | Cc1ccc(NC(=O)CN2C(=O)CSc3ccc(S(=O)(=O)N4CCCC4)cc32)cc1F | -14.1%
95 | CCc1ccc(NC(=O)c2cc(S(=O)(=O)NC3CCCC3)ccc2F)cc1 | 11.5%
96 | COc1cc(OC)c(NC(=O)c2nnn(Cc3ccc(C)cc3)c2N)cc1Cl | 12.7%
97 | Cc1ccc(CN2CCN(C(=O)c3ccco3)CC2)cc1 | active: 82.5%
